Experimental data reported in ChEMBL document CHEMBL4888484, “Replenishing the malaria drug discovery pipeline: Screening and hit evaluation of the MMV Hit Generation Library 1 (HGL1) against asexual blood stage Plasmodium falciparum ,using a nano luciferase reporter read-out” (2022).
The campaign covered roughly 150,000 compounds. About 540 (0.36%) showed an effect of 50% or more. The list shows a part of the results.

Tested on: Plasmodium falciparum
Assay: Primary screen in NF54 nanoGlo assay, in single point, at 2uM, 72h; a lower Z score goes with more inhibition
Format: functional, Erythrocyte
Settings: timepoint 72 hour

SMILES | % Inhibition [%] | Z score | % Inhibition (2 µM) [%] | Z score (2 µM)
CCOc1ccnc(NCc2cnc(C)cn2)n1 | -10 | 0.96 | – | –
O=C(NC1CCN(c2cnsn2)CC1)[C@@H]1CCCO1 | -13 | 1.69 | – | –
CCCCCc1nc(Cn2ccnn2)n(Cc2c(F)cccc2Cl)n1 | -3 | 0.5 | – | –
CCN(C(=O)CN1CCC[C@H]1c1nnc2ccccn12)c1ccccc1 | -18 | 1.66 | – | –
CC1CCCN(C(=O)c2ccnc(-c3ccccc3)c2N)C1C(=O)O (configuration not stated) | -6 | 0.84 | – | –
CC1CC(C)CN(C(=O)Cn2ccc(=O)n(C)c2=O)C1 (configuration not stated) | -9 | 1.62 | – | –
OC[C@H]1CCCN(c2nc(-c3ccc(Oc4ccccc4)cc3)nc3ccccc23)C1 | -10 | 1.4 | – | –
N#Cc1ccc(N2CCC(O)(Cc3cccc(F)c3)CC2)cn1 | -8 | 1.52 | – | –
CCOC(=O)Cc1cnc(N(C)C(=O)c2cccc(CC#N)c2)s1 | -10 | 1.93 | – | –
OC[C@H]1CCCCCN1Cc1ccnc2ccccc12 | 3 | -0.63 | – | –
CCN1C[C@@H](C(=O)Nc2ccncc2C(C)=O)CC1=O | 2 | -0.43 | – | –
O=S(=O)(NCc1cc2ccccc2o1)c1ccc2ccccc2c1 | -10 | 1.56 | – | –
Cc1cc(N(C)C(=O)c2nn(C(C)C)cc2Br)ccn1 | 0 | 0 | – | –
CN(Cc1ccccc1)C1(CNC(=O)C2CCOCC2)CCC1 | -13 | 1.56 | – | –
O=C(CC1CCCO1)NCC1CC12CCc1ccccc12 (configuration not stated) | -7 | 0.96 | – | –
CC(C)(C)n1ncc2c1NC(=O)C[C@@H]2c1ccc(F)cc1Cl | 30 | -3.37 | – | –
Cc1ccc(S(=O)(=O)NCc2nnc(C(=O)Nc3ccccc3F)s2)cc1 | 28 | -3.23 | – | –
O=C([C@H]1CCCN(c2[nH]cnc3ncnc2-3)C1)N1CCN(c2ccccc2)CC1 | – | – | -3 | -3.22
CCc1nc(C)c(CN2CCC[C@H](CN(C)S(C)(=O)=O)C2)o1 | 0 | 0.01 | – | –
O=C(NC1CCC(CO)CC1)C1CC=CC1 (configuration not stated) | -1 | 0.12 | – | –
Cc1ccc2nc(NC(=O)CNC(=O)C3CCCCC3)sc2c1 | 31 | -3.52 | – | –
O=C(Nc1ccc(-c2nc3ccccc3s2)cc1Cl)c1ccccn1 | -12 | 1.08 | – | –

SMILES | % Inhibition [%] | Z score | % Inhibition (2 µM) [%] | Z score (2 µM)
O=C(CC1CCC(F)(F)CC1)Nc1cc2cc[nH]c2cn1 | -6 | 1.21 | – | –
COC(=O)[C@H](C)N(C(=O)CO)c1c(C)cccc1C | 39 | -4.97 | – | –
CCc1nc(C)c(NC(=O)Nc2cnn(CCF)c2)s1 | -3 | 0.41 | – | –
O=C(C[C@H]1CCCO1)N(Cc1ccccn1)c1ccc(F)cc1 | 0 | 0.05 | – | –
Cc1cc(C(=O)N2CCC3(CC2)CC(=O)N(Cc2ccccc2)C3)ccc1F | -13 | 1.3 | – | –
COc1ccc(CC(=O)N2CCc3ncccc32)nc1 | -10 | 1.64 | – | –
CCCc1cc(C(=O)N[C@H]2CCCC[C@@H]2OCc2ccccc2)[nH]n1 | -18 | 2.29 | – | –
CC(=O)N(C)c1ccccc1NC(=O)c1ccccc1C | -8 | 1.12 | – | –
CCOc1ccc(-c2csc(=O)[nH]2)cc1 | -4 | 0.45 | – | –
Cc1cc(F)ccc1-c1cccc(C(=O)N[C@H]2CC[C@@H](N)C2)c1 | -9 | 1.22 | – | –
O=C(NCc1cccnc1)N1CCC([C@H](O)C(F)(F)F)CC1 | -4 | 0.5 | – | –
Cc1cccc(C(=O)Nc2cc(C(=O)O)ccc2N2CCC(CCN3CCCCC3)CC2)c1 | -5 | 0.82 | – | –
CCCc1cnc(C)nc1NC[C@H]1CCN(c2cnn(C)c(=O)c2)C1 | -8 | 1.46 | – | –
CC(C)n1cc(C(=O)N2CCOc3ccc(CN4CCN(c5ccccc5)CC4)cc3C2)cn1 | 2 | -0.28 | – | –
COc1ccc(-c2cnc3[nH]ccc3c2)cc1C[C@@H](CN)CO | -19 | 2.66 | – | –
Cc1ccc(N[C@@](C)(C(=O)NCC(=O)NC(C)C)c2ccccc2)cc1 | -9 | 1.03 | – | –
CCN(c1ccccc1)S(=O)(=O)NC(=O)C1CCC(F)(F)CC1 | -2 | 0.26 | – | –
Cc1ccc(Cl)c(-c2nccn2C2CCOCC2)c1F | 0 | -0.06 | – | –
CCCc1ccc(S(=O)(=O)N2CCc3c(c(-c4nnc(-c5ccc(C)cc5)o4)nn3C)C2)cc1 | -14 | 1.58 | – | –
COc1ccc(C2C(C(=O)N3CCN(c4ccccn4)CC3)c3ccccc3C(=O)N2C2CCCCC2)cc1 (configuration not stated) | 0 | 0.03 | – | –
Cn1cc(C(=O)N2CCC[C@H](c3nc4ccccc4s3)C2)c(=O)[nH]c1=O | 2 | -0.24 | – | –
Cc1ccc(CCN(C[C@H]2CCCO2)C(=O)c2cc[nH]c(=O)c2)cc1 | -8 | 1.05 | – | –

SMILES | % Inhibition [%] | Z score | % Inhibition (2 µM) [%] | Z score (2 µM)
COCCNC(=O)CNC(=O)c1cccc(Br)c1 | -18 | 3.52 | – | –
C#CCNC(=O)NCCNS(=O)(=O)c1cc(C)ccc1C | -13 | 1.16 | – | –
O[C@@]1(CCNc2nc3cc(Br)ccc3o2)CCCOC1 | -3 | 0.5 | – | –
COCCN1C[C@H]2CN(Cc3nccn3C)CCN2C1=O | 18 | -2.11 | – | –
CC(=O)Nc1ccc2nc(N3CCC(C(=O)NC4CC4)CC3)cc(C)c2c1 | 8 | -1.23 | – | –
Cc1oc2ccc(OCc3ccccc3)cc2c1C(=O)N1C[C@H](O)C[C@H]1C(=O)O | -11 | 2.23 | – | –
Cc1c(Cl)cccc1-n1nc(C)c2c(C)cc(OCC(=O)NCc3ccc4c(c3)OCO4)nc21 | -14 | 1.54 | – | –
O=C(NCC1CCN(C(=O)[C@H]2CCOC2)CC1)c1ccoc1 | -16 | 1.68 | – | –
CC1(C)C2CCC(C2)C1CC1OCC(C[N+]2(Cc3ccccc3)CCCCC2)O1 (configuration not stated) | -7 | 1.37 | – | –
CCn1cc(C(=O)N2CCC[C@H]2C(=O)N2CCOCC2)c(C)n1 | -20 | 1.78 | – | –
CN1CCN(c2ccccc2NC(=O)c2ccc3ccccc3c2)CC1 | -13 | 1.44 | – | –
FC(F)(F)c1cnc(Cc2ccc(OC[C@H]3CC3(Cl)Cl)cc2)c(Cl)c1 | 34 | -1.07 | – | –
O=C(Nc1cnc(-n2ccnc2)nc1)c1ccccn1 | -5 | 0.76 | – | –
Cc1cc(F)ccc1Cc1noc([C@@]2(C)CCNC(=O)C2)n1 | 8 | -1.4 | – | –
Cc1nn(CCNS(=O)(=O)CCC(F)(F)F)c(C)c1-c1ccsc1 | -1 | 0.09 | – | –
CCN(C(=O)C1CCN(c2cc(=O)n(C)c(=O)n2C)CC1)c1cccc(Cl)c1 | -19 | 2.96 | – | –
CN(Cc1cnc2ccccc2n1)C(=O)CCN(C)[C@H]1CCS(=O)(=O)C1 | 5 | -0.81 | – | –
CCCc1ccc2oc(-c3nc(C)no3)c(C)c2c1 | 6 | -1.22 | – | –
O=C(CCc1nnc2ccc(N3CCCCC3)nn12)Nc1ccc2c(c1)OCO2 | -15 | 2.5 | – | –
O=C1COc2ccc3c(c2)CCN(C(=O)c2ccc(O)cc2)[C@H]3c2cccc(c2)OCCCN1 | -10 | 1.83 | – | –
O=C1[C@@H](n2nnn(-c3cccs3)c2=O)CCN1CC(F)(F)F | -8 | 1.48 | – | –
CN(CC(=O)NC1Cc2ccccc2C1)Cc1ccncc1 | 2 | -0.21 | – | –

SMILES | % Inhibition [%] | Z score | % Inhibition (2 µM) [%] | Z score (2 µM)
CC(C)c1cc(C(=O)NCc2cccnc2Oc2ccc(F)cc2F)on1 | -9 | 1.25 | – | –
N#Cc1ccc(N[C@H]2CCc3nnc(-c4ccc(F)cc4)n3C2)nc1 | -20 | 1.83 | – | –
CN(Cc1ccncc1Cl)Cc1noc2c1CCCC2 | 13 | -1.67 | – | –
Cc1ccc(NC(=O)N2CC(c3nc(C(C)C)nn3C)C2)cc1F | 37 | -4.94 | – | –
Cc1cnc(C)c(NCCc2ccn(C)n2)n1 | -1 | 0.15 | – | –
COC(=O)CNc1cc(Cl)cc(C(N)=O)c1OC | 5 | -0.82 | – | –
Cc1cn2nc(C(=O)N3CCCC3)cc2c(N(C)Cc2ccccc2)n1 | -4 | 0.47 | – | –
CNC(=O)[C@@H]1Cc2cc(OC)c(OC)cc2CN1C(=O)CCCc1nnc2cccnn12 | -8 | 1 | – | –
CC[C@H]1CC[C@H](C(=O)NCCC(C)(C)O)CC1 | -7 | 1.4 | – | –
O=C(Nc1cccn2cnnc12)c1cccc(C(F)(F)F)c1 | -31 | 4.77 | – | –
CCNC(=O)CN(CC)C(=O)COc1ccc(Cl)c(C)c1 | 32 | -0.63 | – | –
CCn1cnc2c1CN(S(=O)(=O)c1ccc(Cl)s1)CC2 | -9 | 1.05 | – | –
COC1CN(C(=O)N(c2ccccn2)[C@@H](C)c2ccco2)C1 | 7 | -0.97 | – | –
CN(CC1CCC1)C(=O)Cc1csc(NC(=O)c2ccco2)n1 | -9 | 0.95 | – | –
CN(C)C(=O)c1coc2nc3ccccc3nc12 | -12 | 1.52 | – | –
CCOc1cc(CN2CCc3c(c(CN(C(C)=O)c4ccccc4)nn3C)C2)ccc1O | -15 | 1.36 | – | –
Cc1c(C(=O)N2CCCCCC2)c(S(=O)(=O)N(C)C2CCCCC2)c(C)n1C | -11 | 2.12 | – | –
CC[C@H](NCC(=O)NC1CC1)c1cc(F)ccc1F | 0 | 0.03 | – | –
CCC(CC)n1nc(NC(=O)CNC)cc1C | -1 | 0.13 | – | –
Cc1nc(N(C)C)sc1CN1CCCC(C(C)O)C1 (configuration not stated) | -8 | 0.85 | – | –
